Source: patent US8021661B2, “Cripto binding molecules” (Biogen Idec MA Inc., priority 2005, dated 2011)
Residue numbers refer to the chain shown, from its start.

B1: HuCC49 V2 PAP: CH2 domain deleted humanized CC49 version 2 containing the connecting peptide shown in SEQ ID NO: 32 (protein)
heavy (part 1 of 2): QVQLVQSGAEVVKPGASVKISCKASGYTFTDHAIHWVKQNPGQRLEWIGYFSPGNDDFKYNERFKGKATITADTSASTAYVELSSLRSEDTAVYFCARSLNMAYWGQGTLVTVSS
heavy (part 2 of 2): EPKSCDKTHTCPPCPAPGGGSSGGGSG
light: DIVMSQSPDSLAVSLGERVTLNCKSSQSLLYSGNQKNYLAWYQQKPGQPPKLLIYWASARESGVPDRFSGSGSGTDFTLTISSVQAEDVAVYYCQQYYSYPLTFGAGTKLELKRTVAAPSVFIFPPSDEQLKSGTASVVCLLNNFYPREAKVQWKVDNALQSGNSQESVTEQDSKDSTYSLSSTLTLSKADYEKHKVYACEVTHQGLSSPVTKSFNRGEC
modifications: left off: a dimerising Fc or GST
B2: Domain deleted CC49 G1/G3/Pro243Ala244Pro245+[Gly/Ser]: domain deleted CC49 with hinge connecting peptide SEQ ID NO: 5 (antibody)
heavy: QVQLVQSGAEVVKPGASVKISCKASGYTFTDHAIHWVKQNPGQRLEWIGYFSPGNDDFKYNERFKGKATLTADTSASTAYVELSSLRSEDTAVYFCTRSLNMAYWGQGTLVTVSSASTKGPSVFPLAPSSKSTSGGTAALGCLVKDYFPEPVTVSWNSGALTSGVHTFPAVLQSSGLYSLSSVVTVPSSSLGTQTYICNVNHKPSNTKVDKKVEPKSCDKTHTCPPCPEPKSCDTPPPCPRCPAPGGGSSGGGSGGQPREPQVYTLPPSRDELTKNQVSLTCLVKGFYPSDIAVEWESNGQPENNYKTTPPVLDSDGSFFLYSKLTVDKSRWQQGNVFSCSVMHEALHNHYTQKSLSLSPGK
light: B1 light with P49S

What was measured:
[1] = tested on: LS-174T human tumor xenografts; assay: Biodistribution of 90Y-CHx-DTPA conjugated antibody in tumor-bearing mice; format: in vivo, athymic mice; details: for Percentage injected dose (% ID) of 90Y radiolabelled antibody per gram, Blood / Percentage injected dose (% ID) of 90Y radiolabelled antibody per gram, Kidney / Percentage injected dose (% ID) of 90Y radiolabelled antibody per gram, Liver / Percentage injected dose (% ID) of 90Y radiolabelled antibody per gram, Spleen / Percentage injected dose (% ID) of 90Y radiolabelled antibody per gram, Tumor: 7 mice/group, mean ± standard deviation
Method: Biodistribution of ^90Y-2-(p-isothiocyanatobenzyl) (p-SCN-Bz)-cyclohexyldiethylenetriaminepentaacetic acid ligand (CHx-DTPA) conjugated HuCC49 V2 PAP (containing the connecting peptide shown in SEQ ID NO: 32) and control parent HuCC49 antibody were evaluated and compared in athymic mice bearing LS-174T human tumor xenografts. Percentage injected dose (% ID) of ^90Y radiolabelled antibody per gram of tumor or normal tissue was determined at 3 and 24 hours and is shown in Table 7.

[2] = Sensitivity to glutathione (GSH) reduction, non-reducing SDS-PAGE; format: physicochemical
Method: Briefly, 50 ug of ddCC49 (Gly-Ser), ddCC49 G1/G3/Pro243Ala244Pro245+[Gly/Ser] (SEQ ID NO: 5) or parent CC49 were incubated with 0, 1, 5 or 10 mM GSH for one hour at room temperature. Reaction buffers used include 100 mM PBS, pH 7.2 or 100 mM Sodium Acetate, 100 mM NaCl, pH 4.5. GSH-treated antibodies were heated with SDS and applied to a 4-20% gradient SDS-PAGE, non-reducing gel. Applied samples were allowed to migrate through the gel at a constant 120 Volts for 90 minutes at room temperature. Proteins were Coomassie stained and gels dried.

Molecule	Percentage injected dose (% ID) of 90Y radiolabelled antibody per gram, Blood ([1]; 3 hrs) [% ID per gram]	Percentage injected dose (% ID) of 90Y radiolabelled antibody per gram, Kidney ([1]; 3 hrs) [% ID per gram]	Percentage injected dose (% ID) of 90Y radiolabelled antibody per gram, Liver ([1]; 3 hrs) [% ID per gram]	Percentage injected dose (% ID) of 90Y radiolabelled antibody per gram, Spleen ([1]; 3 hrs) [% ID per gram]	Percentage injected dose (% ID) of 90Y radiolabelled antibody per gram, Tumor ([1]; 3 hrs) [% ID per gram]	uptake in the kidney compared with control HuCC49 antibody ([1]; 24 hour time point, p<0.01)	uptake in the tumor compared with control HuCC49 antibody ([1]; 24 hour time point, p<0.05 unpaired t Test)	Percentage injected dose (% ID) of 90Y radiolabelled antibody per gram, Blood ([1]; 24 hrs) [% ID per gram]	Percentage injected dose (% ID) of 90Y radiolabelled antibody per gram, Kidney ([1]; 24 hrs) [% ID per gram]	Percentage injected dose (% ID) of 90Y radiolabelled antibody per gram, Liver ([1]; 24 hrs) [% ID per gram]	Percentage injected dose (% ID) of 90Y radiolabelled antibody per gram, Spleen ([1]; 24 hrs) [% ID per gram]	Percentage injected dose (% ID) of 90Y radiolabelled antibody per gram, Tumor ([1]; 24 hrs) [% ID per gram]	tumor to organ ratio compared with HuCC49 ([1]; mouse, in vivo)	stability toward glutathione (GSH) reduction ([2]; 0, 1, 5 or 10 mM GSH, one hour, room temperature, compared with domain deleted CC49 with a Gly-Ser hinge linker)	protection from GSH reduction by buffer ([2]; 100 mM Sodium Acetate at pH 4.5 compared to 100 mM PBS at pH 7.2)
B1	24.6 ± 3.0	10.0 ± 1.4	8.4 ± 1.0	4.6 ± 2.2	16.1 ± 5.0	lower in the kidney	significantly higher in the tumor	2.0 ± 0.6	6.7 ± 0.4	11.2 ± 2.2	7.7 ± 1.8	21.3 ± 4.8	higher tumor to organ ratio for all organs except blood	–	–
B2	–	–	–	–	–	–	–	–	–	–	–	–	–	more stable toward glutathione (GSH) reduction	further protects
